Results from PubChem BioAssay AID1030 (National Center for Advancing Translational Sciences (NCATS), 2008).
Hit rate of the full screen: of about 220,000 compounds, about 16,000 (7.3%) were called active. This list was built around the results that the source calls inconclusive (neither active nor inactive); the mix of calls is not that of the screen. Calls follow the shape of the dose curve; as a rule, active = well fitted inhibition curve with a large enough effect (not every such curve was filed as active); inconclusive = small, poorly fitted or top-dose-only effect, or another doubt; inactive = no such curve, though single readings can be large or run the other way. No potency is given beside an inconclusive call; the fits are too rough.

Biological target: Aldehyde dehydrogenase 1A1 (Homo sapiens) (UniProt P00352)
Assay: qHTS Assay for Inhibitors of Aldehyde Dehydrogenase 1 (ALDH1A1);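 as to activity, negative = inhibition: plate controls were no enzyme wells and a reference inhibitor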
Conditions: Purified ALDH1A1, NADH fluorescence, propionaldehyde substrate; series mostly up to 75.3 µM; activity, negative = inhibition: at the top concentration
Potency is read from the fitted curve at half-maximal effect; tags tell the direction and shape of the fitted curve.

UniProt P00352, sequence (P00352 whole entry, looked up): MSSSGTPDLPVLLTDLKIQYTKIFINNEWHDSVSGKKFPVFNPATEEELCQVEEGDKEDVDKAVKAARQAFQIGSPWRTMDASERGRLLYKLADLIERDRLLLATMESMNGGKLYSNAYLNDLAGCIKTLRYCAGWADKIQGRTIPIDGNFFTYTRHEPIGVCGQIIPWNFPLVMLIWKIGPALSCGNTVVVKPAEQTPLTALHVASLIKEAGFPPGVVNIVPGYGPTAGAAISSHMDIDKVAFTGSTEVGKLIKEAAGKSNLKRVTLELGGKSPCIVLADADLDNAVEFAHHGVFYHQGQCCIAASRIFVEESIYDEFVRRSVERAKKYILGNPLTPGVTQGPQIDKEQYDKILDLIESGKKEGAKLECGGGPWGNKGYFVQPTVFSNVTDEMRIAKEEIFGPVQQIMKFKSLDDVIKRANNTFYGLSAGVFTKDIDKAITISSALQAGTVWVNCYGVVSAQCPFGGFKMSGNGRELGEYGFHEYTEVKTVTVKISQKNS

Row | Compound | activity, negative = inhibition | Potency
1 | Cc1cc(C)cc(NC(=O)c2cc(S(=O)(=O)NCc3ccco3)ccc2F)c1 | inactive: 6.16% | –
2 | COCC(=O)N(Cc1cc2ccc(C)c(C)c2n2nnnc12)C1CCCC1 | – | inconclusive [inhibitor, partial curve]
3 | CC(C)c1nc(SCC(=O)Nc2ccc(N3CCOCC3)cc2)c2ccccc2n1 | – | inconclusive [inhibitor, single point]
4 | O=C(NCc1ccco1)C(c1ccco1)N(Cc1cccs1)C(=O)Cn1nnc2ccccc21 (stereo not drawn) | – | active: 14.1 µM
5 | COc1ccc(/C=N/NC(=O)c2ccco2)cc1Cn1nc(C)cc1C | – | inconclusive [inhibitor, single point]
6 | CCOC(=O)C1=C(C)NC2=C(C(=O)CCC2)C1c1cn(Cc2ccc(Cl)cc2Cl)nc1-c1ccccc1 (stereo not drawn) | – | inconclusive [inhibitor, partial curve]
7 | Cc1ccc(C(=O)NC(=S)NNC(=O)c2ccccc2[N+](=O)[O-])cc1 | – | active: 22.4 µM
8 | CC(=O)c1ccc(N2CCN(C(=S)Nc3ccccc3)CC2)cc1 | – | inconclusive [inhibitor, single point]
9 | CSc1cccc(NCc2ccc([N+](=O)[O-])cc2)c1 | – | active: 35.5 µM
10 | COCCSc1nc2c(c(=O)[nH]c(=O)n2C)n1Cc1cccc(C)c1 | – | active: 14.1 µM
11 | COC(=O)c1nc(NC(=O)c2ccc(C(C)(C)C)cc2)n[nH]1 | inactive: 3.87% | –
12 | FC(F)(F)c1nc(=S)c2ccccc2[nH]1 | – | active: 8.91 µM
13 | COc1ccc2c(-c3ccccc3)cc(SCC(=O)N(C)C)nc2c1 | – | inconclusive [inhibitor, single point]
14 | Cc1cc2c(cc(C(=O)NCc3cccnc3)n2Cc2ccc(Cl)cc2)o1 | – | active: 6.31 µM
15 | Cc1ccc(NC(=O)c2ccc(-n3cccn3)nc2)cc1 | – | inconclusive [inhibitor, single point]
16 | O=C(/C=C/c1ccc(S(=O)(=O)N2CCOCC2)cc1)NC(=S)Nc1ccc(Cl)cc1Cl | – | active: 1.12 µM
17 | Cc1ccccc1-c1cc(C(=O)Nc2nc3c(s2)CCCC3)c2ccccc2n1 | – | inconclusive [inhibitor, single point]
18 | c1cncc(-c2nn3c(Cn4nnc5ccccc54)nnc3s2)c1 | – | active: 7.08 µM
19 | CCN(CC)S(=O)(=O)c1ccc(C)c(NC(=S)NNC(=O)C2CC2)c1 | – | active: 8.91 µM
20 | CCOc1ccc2nc(NC(=O)CSc3nnnn3C3CCCCC3)sc2c1 | – | active: 8.91 µM
21 | O=C(CN1CCCc2ccccc21)NC(=O)NC1CCCCC1 | – | inconclusive [inhibitor, single point]
22 | CCOc1ccc2nc(NC(=O)c3ccc(OCC4CCCO4)cc3)sc2c1 (stereo not drawn) | – | inconclusive [inhibitor, single point]
23 | Cn1cc(CNC(=O)CC2C(=O)NCCN2CC(C)(C)C)cn1 (stereo not drawn) | – | inconclusive [inhibitor, single point]
24 | O=C(CSc1nnc(COc2cccc3cccnc23)o1)N1CCc2ccccc21 | – | active: 14.1 µM

Row | Compound | activity, negative = inhibition | Potency
25 | COc1ccc(C2C(C(=O)NCCN3CCOCC3)c3ccccc3C(=O)N2C)cc1OC (stereo not drawn) | – | inconclusive [inhibitor, partial curve]
26 | Cc1cccc(NC(=O)c2cc3c([nH]c4ccccc43)c(C)n2)c1C | inactive: 2.77% | –
27 | CCOC(=O)c1sc(=S)n(-c2ccc(F)c(F)c2)c1N | – | active: 12.6 µM
28 | Oc1c(Cl)cc(Cl)cc1C=Nc1ccccc1N1CCCC1 | inactive: 11.6% | –
29 | O=C(Cc1ccc(Br)cc1)Nc1cccc(-c2cn3c(n2)SCC3)c1 | – | inconclusive [inhibitor, single point]
30 | COc1ccc(C)cc1NC(=O)c1cnc2sccn2c1=O | – | inconclusive [inhibitor, single point]
31 | CCOc1ccc(N2C(=O)C3Sc4[nH]c(=O)sc4C(/C=C/c4ccccc4)C3C2=O)cc1 (stereo not drawn) | – | active: 11.2 µM
32 | CCCCSc1nnc(-c2ccccc2)c2ccccc12 | – | inconclusive [inhibitor, single point]
33 | COc1ccc(-c2nc3cnc(OC)nc3n(C[C@H]3CCCO3)c2=O)cc1 | – | inconclusive [inhibitor, single point]
34 | COC(=O)c1ccc(/C=N/OCC(=O)NC2CCCCCCC2)cc1 | inactive: -3.7% | –
35 | Cc1c(NC(C)c2cc(Cl)ccc2O)c(=O)n(-c2ccccc2)n1C (stereo not drawn) | – | inconclusive [inhibitor, single point]
36 | O=C(c1ccc(Cn2cc(Br)cn2)cc1)N1CCN(c2ccccc2)CC1 | inactive: 4.94% | –
37 | CC(=O)N1CCCN(Cc2cn(-c3cc(C)ccc3C)nc2-c2ccccc2)CC1 | – | inconclusive [inhibitor, single point]
38 | COc1ccc(N2C(=O)CC(Sc3nnc(-c4ccccc4)o3)C2=O)cc1 (stereo not drawn) | – | active: 1.78 µM
39 | N#Cc1ccc(CS(=O)(=O)c2nnnn2-c2ccccc2)cc1 | – | active: 0.794 µM
40 | COc1ccc(CCN2C(=O)CC(Cc3cccc(C)c3)C2=O)cc1OC (stereo not drawn) | – | inconclusive [inhibitor, single point]
41 | O=C(O/N=C\c1ccc(N2CCOCC2)c([N+](=O)[O-])c1)c1ccc(F)cc1 | – | inconclusive [inhibitor, single point]
42 | O=C(N/N=C/c1ccc([N+](=O)[O-])o1)c1ccncc1 | inactive: -4.13% | –
43 | COc1cc(NS(=O)(=O)c2ccc(NC(=S)NC(=O)c3sc4ccccc4c3Cl)cc2)nc(OC)n1 | – | active: 11.2 µM
44 | CC1CCN(c2nncc3ccccc23)CC1 | inactive: -2.89% | –
45 | O=c1cnnc(N/N=C/C2CC=CCC2)[nH]1 (stereo not drawn) | – | inconclusive [inhibitor, single point]
46 | O=C(CSc1nccn1-c1ccc(Cl)cc1)Nc1ccc2c(c1)OCO2 | – | inconclusive [inhibitor, full curve]
47 | Cc1ccsc1/C=N/Nc1cccc(C(=O)O)c1 | inactive: -5.39% | –
48 | CC(C)NCC(O)Cn1c2c(c3ccccc31)CCc1c-2cnn1-c1ccccc1 (stereo not drawn) | – | inconclusive [inhibitor, partial curve]
